Measurements published in PubChem BioAssay (Tox21).
Values joined by “and” are separate entries in the source; they are usually repeats but may differ in a detail not shown here. Identical values can stand only once. The inconclusive results got no clear call from the source; some entries with a clear call stand among them for comparison. Potencies of inconclusive entries are doubtful fits and often do not repeat. A structure can be active in one record and inactive in another. Active and inactive are the calls of the source. The call rests on the fitted dose curve; in most records, active means well fitted cell-killing curve with a large enough effect in the repeat runs; inconclusive means weak or mixed curves, or effect the other way; inactive means flat fitted curve, though single readings scatter.

Assay: qHTS RealTime-Glo MT Cell Viability Assay in HEK293 cells - 24 hour (AID 1224886); further: nearly all actives have a fitted effect of over 50% in size; on activity change, negative = cytotoxicity: top concentration of the series differs between compounds
Settings: RealTime-Glo luminescence; series mostly up to 76.8 µM; activity change, negative = cytotoxicity: at the top concentration
Description: National Center for Advancing Translational Sciences [NCATS]
NIH Chemical Genomics Center [NCGC]
U.S. Environmental Protection Agency [EPA]
National Institutes of Environmental Health Sciences [NIEHS]
National Toxicology Program [NTP]
U.S. Food and Drug Administration [FDA]
Measure of cell viability is critical in the cell-base assay. Analysis of cell viability is necessary for the characterization of cell responses to cytotoxic drugs and environmental stress. A RealTime-Glo MT Cell Viability Assay to monitor cell viability in real time of continues cell culture during 40 hours of compound treatment was used to screen Tox21 10K library compounds in Hek293 cells. The RealTime-Glo MT Cell Viability Assay is a nonlytic, homogeneous, bioluminescent method to measure cell viability in real time using a simple, plate-based method. The assay involves adding NanoLuc luciferase and a cell-permeant prosubstrate to cells in culture. Viable cells reduce the proprietary prosubstrate to generate a substrate for NanoLuc luciferase. This substrate diffuses from cells into the surrounding culture medium, where it is rapidly used by the NanoLuc Enzyme to produce a luminescent signal. The signal correlates with the number of viable cells, making the assay well suited for cytotoxicity studies.
Tox21 Assay Protocol Summary:
The mixture of Hek293 cell suspension and reagents were dispensed at 600cells/6 ul/well in 1536-well tissue culture treated black solid bottom plates using a Multidrop dispenser. After the assay plates were incubated at a 37 C/5% CO2 incubator for 5 hours, 23 nL of compounds dissolved in DMSO, positive and negative controls was transferred to the assay plate by a pintool work station. The plates were incubated at 37 C for 40 hours. The luminescence intensity were measured at 0h, 8h, 16h, 24h, 32h and 40h time points using ViewLux plate reader during compound treatment.
On the % scale 0 is the no-effect control and ±100 the full control effect; potency means the concentration at half of the fitted maximal effect; tags describe the fitted curve by direction and shape.

SMILES	Potency	activity change, negative = cytotoxicity
O=C(NCc1cccnc1)Nc1ccc([N+](=O)[O-])cc1	active: 49 µM	–
O=Cc1cccc(Oc2ccccc2)c1	inconclusive: 62.1 µM [cytotoxic, partial curve, poor fit]	–
CC(=O)[O-].CC(=O)[O-].O.O.O.[Pb+2]	inconclusive: 1.95 µM [rising, partial curve, poor fit]	–
COC(C)(C)CCCC(C)C/C=C/C(C)=C/C(=O)OC(C)C (stereo not given)	inconclusive: 38.3 µM [cytotoxic, partial curve]	–
Cc1cc(C2CC2)nc(Nc2ccccc2)n1	active: 24.5 µM	–
CCOC(=O)OC1=C(c2cc(C)ccc2C)C(=O)NC12CCC(OC)CC2 (stereo not given)	–	inactive: -0.99%
Nc1ccccc1C(=O)Oc1ccc2ccccc2c1	inconclusive: 49 µM [cytotoxic, partial curve, poor fit]	–
CCCCCc1cc(O)cc(O)c1	inconclusive: 49.2 µM [cytotoxic, partial curve] and active: 38.9 µM	–
Clc1cc(C(Cl)(Cl)Cl)cnc1Cl	inconclusive: 38.9 µM [cytotoxic, partial curve, poor fit]	–
O=C(O)c1ccccc1C(=O)Nc1cccc2ccccc12	inconclusive: 61.6 µM [rising, partial curve, poor fit]	–
O=C(O)CCCc1ccc(N(CCCl)CCCl)cc1	inconclusive: 10.7 µM [cytotoxic, single point]	–
C#CCC1=C(C)C(OC(=O)C2C(C=C(C)C)C2(C)C)CC1=O (stereo not given)	inconclusive: 30.7 µM [cytotoxic, partial curve]	–
CCC1(c2ccc(N)cc2)CCC(=O)NC1=O (stereo not given)	inconclusive: 38.9 µM [cytotoxic, partial curve, poor fit]	–
COP(=O)(OC)O/C(=C/Cl)c1cc(Cl)c(Cl)cc1Cl	inconclusive: 58.1 µM [cytotoxic, single point]	–
CCC1(c2ccccc2)C(=O)N=C(O)NC1=O (stereo not given)	–	inactive: 8.21%
Clc1ccc(CSC(Cn2ccnc2)c2ccc(Cl)cc2Cl)cc1 (stereo not given)	inconclusive: 16.9 µM [cytotoxic, partial curve]	–
C[C@]12C/C(=C/O)C(=O)C[C@@H]1CC[C@@H]1[C@@H]2CC[C@@]2(C)[C@H]1CC[C@]2(C)O	active: 49.4 µM	–
CC[C@H](C)[C@H]1O[C@]2(C=C[C@@H]1C)C[C@@H]1C[C@@H](C/C=C(\C)[C@@H](O[C@H]3C[C@H](OC)[C@@H](O[C@H]4C[C@H](OC)[C@@H](NC)[C@H](C)O4)[C@H](C)O3)[C@@H](C)/C=C/C=C3\CO[C@@H]4[C@H](O)C(C)=C[C@@H](C(=O)O1)[C@]34O)O2	active: 5.49 µM	–
COC(=O)N(OC)c1ccccc1COc1ccn(-c2ccc(Cl)cc2)n1	inconclusive: 43.6 µM [cytotoxic, partial curve]	–
CC1(C)CCC(Cc2ccc(Cl)cc2)C1(O)Cn1cncn1 (stereo not given)	active: 24.5 µM	–

SMILES	Potency	activity change, negative = cytotoxicity
O=[N+]([O-])c1ccc(Oc2ccc(Cl)cc2Cl)cc1	inconclusive: 55.3 µM [cytotoxic, partial curve, poor fit] and inconclusive: 49 µM [cytotoxic, partial curve]	–
CC(C)(C)N(NC(=O)c1ccc(Cl)cc1)C(=O)c1ccccc1	inconclusive: 24.4 µM [cytotoxic, partial curve]	–
O=S(=O)(O)C(F)(F)C(F)(F)C(F)(F)C(F)(F)C(F)(F)C(F)(F)C(F)(F)C(F)(F)F	inconclusive: 43.6 µM [cytotoxic, partial curve]	–
Cc1cccc(N=Nc2ccc(N(C)C)cc2)c1	inconclusive: 62.7 µM [cytotoxic, single point] and inconclusive: 24.5 µM [cytotoxic, partial curve]	–
Cc1cc(C(F)(C(F)(F)F)C(F)(F)F)ccc1NC(=O)c1cccc(I)c1C(=O)NC(C)(C)CS(C)(=O)=O	inconclusive: 15.6 µM [cytotoxic, partial curve]	–
CC(CC(C#N)(c1ccccc1)c1ccccc1)N(C)C (stereo not given)	inconclusive: 30.7 µM [cytotoxic, partial curve]	–
ClP(Cl)(Cl)(Cl)Cl	inconclusive: 55.3 µM [cytotoxic, single point]	–
Cl/C=C\C[N+]12CN3CN(CN(C3)C1)C2	inconclusive: 61.6 µM [cytotoxic, single point]	–
CC#C[C@]1(O)CC[C@H]2[C@@H]3C[C@H](C)C4=CC(=O)CC[C@]4(C)[C@H]3CC[C@@]21C	inconclusive: 19 µM [cytotoxic, partial curve]	–
CC(C)(C)C(O)C(Oc1ccc(Cl)cc1)n1cncn1 (stereo not given)	active: 12.3 µM	–
CON(C)C(=O)Nc1ccc(Br)c(Cl)c1	inconclusive: 30.9 µM [cytotoxic, partial curve]	–
CC1(C)CC/C(=C/c2ccc(Cl)cc2)C1(O)Cn1cncn1 (stereo not given)	active: 24.4 µM	–
[Hg+2].[I-].[I-]	active: 3.09 µM	–
O=[N+]([O-])c1cccc2cccc([N+](=O)[O-])c12	–	inactive: -7.64%
O=C(O)COc1cc(Cl)c(Cl)cc1Cl	inconclusive: 15.5 µM [cytotoxic, full curve]	–
CSC(=O)c1c(C(F)F)nc(C(F)(F)F)c(C(=O)SC)c1CC(C)C	inconclusive: 61.3 µM [cytotoxic, partial curve, poor fit]	–
CNC	inconclusive: 5.49 µM [cytotoxic, single point]	–
O=C(CBr)c1ccc(O)cc1	inconclusive: 54.9 µM [rising, single point]	–
CCCCCCCCCCCCCCCCCC(=O)O	inconclusive: 27.3 µM [cytotoxic, partial curve]	–
O=[N+]([O-])O.O=[N+]([O-])O.[Cd]	inconclusive: 0.0436 µM [rising, full curve]	–
